# The densities may have been worked out from excess volumes.
# Test: xn = mol fraction of the nth substance listed
# Conditions: 101 kPa
compound,measurement,setting,value
CC(CC(C)(C)C)CP(=O)([O-])CC(C)CC(C)(C)C.CCCCCCCCCCCCCC[P+](CCCCCC)(CCCCCC)CCCCCC + CCCCCCCCCCCC,mass density,"293.15 K, x1 = 0.4684",858.5 kg/m3
same,mass density,"293.15 K, x1 = 0.6647",873.2 kg/m3
same,mass density,"298.15 K, x1 = 0.6647",870.2 kg/m3
same,mass density,"298.15 K, x1 = 1",887.5 kg/m3
same,mass density,"303.15 K, x1 = 0.4684",852.3 kg/m3
same,mass density,"303.15 K, x1 = 0.6647",867.2 kg/m3
same,mass density,"308.15 K, x1 = 0.6647",864.2 kg/m3
same,mass density,"313.15 K, x1 = 0.4684",846 kg/m3
same,mass density,"313.15 K, x1 = 0.6647",861.1 kg/m3
same,mass density,"313.15 K, x1 = 1",878.3 kg/m3
same,mass density,"318.15 K, x1 = 0.4684",842.8 kg/m3
same,mass density,"323.15 K, x1 = 0.4684",839.7 kg/m3
same,mass density,"323.15 K, x1 = 0.6647",855 kg/m3
same,mass density,"323.15 K, x1 = 1",872.3 kg/m3
same,mass density,"328.15 K, x1 = 0.4684",836.6 kg/m3
same,mass density,"328.15 K, x1 = 0.6647",851.9 kg/m3
same,mass density,"333.15 K, x1 = 0.4684",833.4 kg/m3
same,mass density,"333.15 K, x1 = 0.6647",848.9 kg/m3
same,mass density,"333.15 K, x1 = 1",866.4 kg/m3
same,mass density,"338.15 K, x1 = 0.4684",830.3 kg/m3
same,mass density,"343.15 K, x1 = 0.4684",827.1 kg/m3
same,mass density,"348.15 K, x1 = 0.6647",839.8 kg/m3
same,mass density,"353.15 K, x1 = 0.6647",836.8 kg/m3
same,mass density,"353.15 K, x1 = 1",854.5 kg/m3
CCCCCCCCCCCCCC[P+](CCCC)(CCCC)CCCC.CCCCCCCCCCCCc1ccccc1S(=O)(=O)[O-] + CCCCCCCCCCCC,mass density,"293.15 K, x1 = 0.4844",907.4 kg/m3
same,mass density,"298.15 K, x1 = 0.354",881.2 kg/m3
same,mass density,"298.15 K, x1 = 0.4844",904.2 kg/m3
same,mass density,"298.15 K, x1 = 0.6789",928.6 kg/m3
same,mass density,"303.15 K, x1 = 0.354",877.9 kg/m3
same,mass density,"303.15 K, x1 = 0.4844",900.9 kg/m3
same,mass density,"303.15 K, x1 = 0.6789",925.2 kg/m3
same,mass density,"303.15 K, x1 = 1",952.5 kg/m3
same,mass density,"308.15 K, x1 = 0.354",874.6 kg/m3
same,mass density,"308.15 K, x1 = 0.6789",922 kg/m3
same,mass density,"313.15 K, x1 = 0.6789",918.8 kg/m3
same,mass density,"313.15 K, x1 = 1",942.8 kg/m3
same,mass density,"318.15 K, x1 = 0.354",868 kg/m3
same,mass density,"318.15 K, x1 = 0.4844",891.2 kg/m3
same,mass density,"323.15 K, x1 = 0.354",864.8 kg/m3
same,mass density,"323.15 K, x1 = 0.4844",888 kg/m3
same,mass density,"323.15 K, x1 = 0.6789",912.5 kg/m3
same,mass density,"323.15 K, x1 = 1",936.6 kg/m3
same,mass density,"328.15 K, x1 = 0.4844",884.8 kg/m3
same,mass density,"333.15 K, x1 = 0.354",858.2 kg/m3
same,mass density,"333.15 K, x1 = 0.4844",881.6 kg/m3
same,mass density,"333.15 K, x1 = 0.6789",906.3 kg/m3
same,mass density,"333.15 K, x1 = 1",930.4 kg/m3
same,mass density,"338.15 K, x1 = 0.6789",903.2 kg/m3
same,mass density,"343.15 K, x1 = 0.354",851.6 kg/m3
same,mass density,"343.15 K, x1 = 0.4844",875.2 kg/m3
same,mass density,"343.15 K, x1 = 1",924.3 kg/m3
same,mass density,"348.15 K, x1 = 0.354",848.3 kg/m3
same,mass density,"348.15 K, x1 = 0.4844",872 kg/m3
same,mass density,"348.15 K, x1 = 0.6789",897 kg/m3
same,mass density,"353.15 K, x1 = 0.354",845 kg/m3
same,mass density,"353.15 K, x1 = 0.4844",868.8 kg/m3
same,mass density,"353.15 K, x1 = 1",918.3 kg/m3
same,mass density,"358.15 K, x1 = 0.354",841.7 kg/m3
same,mass density,"363.15 K, x1 = 0.354",838.4 kg/m3
same,mass density,"363.15 K, x1 = 0.4844",862.4 kg/m3
CCCCCCCCCCCCCC[P+](CCCCCC)(CCCCCC)CCCCCC.N#C[N-]C#N + CCCCCCCCCCCC,mass density,"293.15 K, x1 = 0.5534",868.8 kg/m3
same,mass density,"293.15 K, x1 = 0.736",885.6 kg/m3
same,mass density,"298.15 K, x1 = 0.5534",865.8 kg/m3
same,mass density,"298.15 K, x1 = 0.736",882.6 kg/m3
same,mass density,"298.15 K, x1 = 1",899.8 kg/m3
same,mass density,"303.15 K, x1 = 0.5534",862.8 kg/m3
same,mass density,"303.15 K, x1 = 0.736",879.6 kg/m3
same,mass density,"308.15 K, x1 = 0.736",876.7 kg/m3
same,mass density,"313.15 K, x1 = 0.5534",856.7 kg/m3
same,mass density,"313.15 K, x1 = 1",891.1 kg/m3
same,mass density,"318.15 K, x1 = 0.5534",853.7 kg/m3
same,mass density,"318.15 K, x1 = 0.736",870.9 kg/m3
same,mass density,"333.15 K, x1 = 0.5534",844.7 kg/m3
same,mass density,"333.15 K, x1 = 0.736",862.1 kg/m3
same,mass density,"333.15 K, x1 = 1",880.2 kg/m3
same,mass density,"338.15 K, x1 = 0.5534",841.6 kg/m3
same,mass density,"338.15 K, x1 = 0.736",859.2 kg/m3
same,mass density,"343.15 K, x1 = 0.736",856.3 kg/m3
same,mass density,"343.15 K, x1 = 1",874.3 kg/m3
same,mass density,"348.15 K, x1 = 0.5534",835.6 kg/m3
same,mass density,"348.15 K, x1 = 0.736",853.4 kg/m3
same,mass density,"353.15 K, x1 = 0.5534",832.6 kg/m3
same,mass density,"353.15 K, x1 = 0.736",850.5 kg/m3
same,mass density,"358.15 K, x1 = 0.5534",829.6 kg/m3
same,mass density,"363.15 K, x1 = 0.736",844.6 kg/m3

# — a compilation of properties of binary mixtures (doi:10.1515/zpch-2013-0494)
